Reference: PubChem BioAssay AID588342 (National Center for Advancing Translational Sciences (NCATS), 2011)
Hit rate of the full screen: of about 360,000 compounds, about 25,000 (6.9%) were called active. This list was built around the results that the source calls inconclusive (neither active nor inactive); the mix of calls is not that of the screen. Calls come from the whole dose curve; as a rule, active = well fitted inhibition curve with a large enough effect; inconclusive = small, poorly fitted or top-dose-only effect; inactive = flat fitted curve, though single readings scatter. Potencies beside an inconclusive call are fits to weak or partial responses and may not hold up.

Biological target: Luciferin 4-monooxygenase (Photinus pyralis) (UniProt P08659)
Sequence of UniProt P08659 (P08659 whole entry, looked up): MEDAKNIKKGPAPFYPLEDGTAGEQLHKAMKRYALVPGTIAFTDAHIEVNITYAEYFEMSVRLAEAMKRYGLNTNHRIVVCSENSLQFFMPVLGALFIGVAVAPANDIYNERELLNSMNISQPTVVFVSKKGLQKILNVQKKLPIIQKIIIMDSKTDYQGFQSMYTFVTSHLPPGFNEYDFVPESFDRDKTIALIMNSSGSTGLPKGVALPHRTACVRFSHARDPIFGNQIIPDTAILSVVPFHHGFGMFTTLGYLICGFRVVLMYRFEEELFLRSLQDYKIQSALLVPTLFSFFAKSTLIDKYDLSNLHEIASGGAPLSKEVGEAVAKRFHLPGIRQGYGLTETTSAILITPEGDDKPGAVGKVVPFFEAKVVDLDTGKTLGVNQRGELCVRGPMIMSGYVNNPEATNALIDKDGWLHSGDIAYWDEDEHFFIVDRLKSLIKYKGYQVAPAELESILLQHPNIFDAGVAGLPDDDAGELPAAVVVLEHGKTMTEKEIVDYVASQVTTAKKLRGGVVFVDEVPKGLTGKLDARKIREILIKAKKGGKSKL
Experiment: qHTS profiling assay for firefly luciferase inhibitor/activator using purifed enzyme and Km concentrations of substrates (counterscreen for miR-21 project); note: nearly all actives have a fitted effect of over 55% in size;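 for activity change, negative = inhibition: plate controls were vehicle for no effect and reference inhibitor for full effect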
Settings: purified FLuc, luminescence inhibition; activity change, negative = inhibition: at 57.5 µM (top of the series)
In short: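 Purified P. pyralis luciferase (10nM final) with 10uM D-luciferin and 10uM ATP (Km levels) in 50mM Tris acetate pH 7.5, 10mM Mg acetate, 0.01% Tween-20, 0.05% BSA; qHTS 6-point titration, ~60 µM downward; luminescence read.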
Potency is the fitted concentration of half-maximal effect; tags give direction and shape of the fitted curve.

| Compound | Potency | activity change, negative = inhibition |
| --- | --- | --- |
| Cc1cc(C(=O)N/N=C/c2cccc(OC(=O)c3ccco3)c2)n[nH]1 | active: 16.9 µM |  |
| O=C(Nc1cccc(-c2cccc(Cl)c2)c1)C1CCN(Cc2ccccn2)CC1 | inconclusive: 37.9 µM [inhibitor, partial curve, poor fit] |  |
| CCCCNC(=O)c1c[nH]c2ccc(S(=O)(=O)Nc3ccc(OCC)cc3)cc2c1=O | inconclusive: 26.9 µM [inhibitor, partial curve, poor fit] |  |
| Cc1cc(NC(=O)c2cccc(Oc3ccccc3)c2)n[nH]1 | active: 6.75 µM |  |
| Cc1ccc(-n2ncc(C(=O)N3CCN(Cc4ccccc4)CC3)c2C2CCN(C(=O)OC(C)(C)C)CC2)c(C)c1 | inactive |  |
| Cc1ccccc1Nc1nc(-c2sc(NC(=O)c3ccco3)nc2C)cs1 | inconclusive: 19 µM [inhibitor, partial curve, poor fit] |  |
| COc1cc(OC)cc(C(=O)Nc2cccc(N3CCCC3)c2)c1 | inconclusive: 19 µM [inhibitor, single point] |  |
| Cc1ccccc1/C=C/C(=O)N1CCOCC1 | inconclusive: 21.3 µM [inhibitor, single point] |  |
| O=C(NCCCc1ccccc1)C1CCC(=O)N(Cc2ccc(Cl)cc2)C1 (centres undefined) | inconclusive: 21.3 µM [inhibitor, single point] |  |
| CC(C)(C)C(=O)N1CCN(c2ccc(NC(=O)c3ccc([N+](=O)[O-])o3)cc2)CC1 | inactive |  |
| COc1ccc(CCNC(=S)N2CCN(S(=O)(=O)c3ccc(C)cc3)CC2)cc1 | inactive |  |
| Cn1nnnc1N=N/C(=N/Nc1ccccc1)c1ccccc1 | inconclusive: 26.9 µM [inhibitor, single point] |  |
| COc1cc(/C=N/NC(=O)CCC(=O)Nc2ccc(Br)cc2)ccc1O | inconclusive: 21.3 µM [inhibitor, partial curve, poor fit] |  |
| Cc1ccc(Cl)cc1N1CCN(C(=O)Cn2cnc3nc4c(cc3c2=O)CCCC4)CC1 | inconclusive: 13.5 µM [inhibitor, partial curve, poor fit] |  |
| Cc1ccc(C)n1-c1nnc(N2CCCC(C(=O)NCc3ccc(F)cc3)C2)s1 (centres undefined) | inactive |  |
| Cc1ccc(C)c(-c2cc(C(=O)N/N=C/c3cccnc3)c3ccccc3n2)c1 | inconclusive: 37.9 µM [inhibitor, partial curve, poor fit] |  |
| COc1ccc(CC2(CO)CCN(Cc3cccc4nccnc34)CC2)cc1 | inconclusive: 37.9 µM [inhibitor, single point] |  |
| Clc1ccc(-c2cc(CSc3cccc(Cl)c3)on2)cc1 | inconclusive: 37.9 µM [inhibitor, single point] |  |
| COc1ccc(C)cc1NC(=O)n1ncc2c(C)cccc21 | active: 7.57 µM |  |
| O=C(NCc1cccc(Br)c1)c1cccn1-c1nnc(N2CCCCC2)s1 | inconclusive: 23.9 µM [inhibitor, partial curve, poor fit] |  |
| Cc1cc(C)n2nc(C(=O)OCC(=O)N(Cc3ccccc3)C(C)C)nc2n1 | inactive |  |
| CCOc1ccc(Cl)cc1S(=O)(=O)n1nnc2ccccc21 |  | inactive: -0.261% [at 2.3 µM] |
| COc1ccc2oc(=N)c(C(=O)Nc3ccccc3)cc2c1 | active: 0.953 µM |  |
| Cc1cc(NC(=O)C2CC2)ncc1NC(=O)c1ccccn1 | inconclusive: 23.9 µM [inhibitor, single point] |  |
| Cc1ccccc1C(=O)Nc1nnc(-c2ccc(C(C)(C)C)cc2)s1 | inconclusive: 15.1 µM [inhibitor, partial curve] |  |

| Compound | Potency | activity change, negative = inhibition |
| --- | --- | --- |
| Cc1ccc2nc(-c3ccc(C)c(NC(=O)CSc4ccc(Cl)cc4)c3)oc2c1 | active: 5.36 µM |  |
| S=C(NCCc1ccccc1)N/N=C/C1CCCCC1 | inconclusive: 30.1 µM [inhibitor, partial curve, poor fit] |  |
| COc1cc(OC)c(-c2c3cc(O)c(=O)cc-3oc3cc(O)c(O)cc23)cc1OC | inconclusive: 21.3 µM [inhibitor, partial curve] |  |
| Nn1c(SCC(=O)NCCC2=CCCCC2)nnc1C(F)(F)F | inactive |  |
| O=C(Nc1ccc(F)c(F)c1)c1cccnc1 | inactive |  |
| COc1cc(/C=N/Nc2ccc(C(=O)O)cc2)ccc1O | active: 1.9 µM |  |
| CCCCn1c(/C=C/c2ccco2)nc2ccccc21 | active: 13.5 µM |  |
| O=C(NCc1cccnc1)c1cc(-c2cccs2)on1 | inconclusive: 37.9 µM [inhibitor, partial curve, poor fit] |  |
| O=C(CSc1nnnn1C1CCCC1)Nc1cccc(NC(=O)c2ccco2)c1 | inconclusive: 26.9 µM [inhibitor, single point] |  |
| Cn1c(/C=C/c2ccccc2[N+](=O)[O-])nc2ccccc2c1=O | inconclusive: 26.9 µM [inhibitor, partial curve, poor fit] |  |
| COc1ccc(O)c(-c2cc(-c3cccc(Br)c3)n[nH]2)c1 | active: 19 µM |  |
| O=C1C(=Cc2ccc(Br)o2)C(=O)c2ccccc21 | active: 13.5 µM |  |
| CC1C(=O)NN=C1C(=O)N/N=C\c1ccc(O)cc1O (centres undefined) | active: 16.9 µM |  |
| CCc1cccc2c1NC(=O)C21N2CCCC2C(C(=O)c2ccc3ccccc3c2)C12C(=O)Nc1ccccc12 (centres undefined) | inconclusive: 23.9 µM [inhibitor, partial curve] |  |
| Cc1ccc(S(=O)(=O)N2CCC(C(=O)Nc3ncccc3O)CC2)cc1 | inactive |  |
| CSCCC(N=C(NS(=O)(=O)c1ccc(C)cc1)c1ccccc1)C(=O)O (centres undefined) | inactive |  |
| COc1ccc(-n2c(SCC#N)nc3c(sc(=S)n3-c3ccccc3)c2=O)c(OC)c1 | inconclusive: 10.7 µM [inhibitor, partial curve, poor fit] |  |
| Nc1cccc(-c2cc3ccccc3oc2=O)c1 | active: 19 µM |  |
| CC(C)Cc1nc(N2CCN(C(=O)Cc3ccccc3)CC2)c(C#N)c2c1COC(C)(C)C2 | inactive |  |
| CC(=O)c1c(C)[nH]c(C(=O)Nc2ccc(C)c(C)c2)c1C | active: 10.7 µM |  |
| CC1CN(c2ccc(C(=O)c3ccccc3C(=O)O)cc2[N+](=O)[O-])CC(C)O1 (centres undefined) | inconclusive: 26.9 µM [inhibitor, single point] |  |
| Cc1ccc2nc(-c3cccnc3)oc2c1 | active: 8.49 µM |  |
| CCCN1C(=O)S/C(=C/c2ccc(N3CCOCC3)o2)C1=O | inconclusive: 21.3 µM [inhibitor, single point] |  |
| O=C(c1ncn[nH]1)N1CCN(c2nc(-c3ccccc3)cs2)CC1 | inconclusive: 30.1 µM [inhibitor, partial curve, poor fit] |  |
| CCN(CC)c1ccc(/C=C(\C#N)C(=O)NCc2ccccc2)cc1 | inconclusive: 37.9 µM [inhibitor, partial curve, poor fit] |  |

| Compound | Potency | activity change, negative = inhibition |
| --- | --- | --- |
| Cc1ccc2c(CSc3nncs3)cc(=O)oc2c1 | inconclusive: 21.3 µM [inhibitor, partial curve] |  |
| CC(C)(C)NC(=O)c1cccc(NC(=O)CSc2ccc(Cl)cc2)c1 | active: 10.7 µM |  |
| COC(=O)c1cc(-c2c(-c3ccc4c(c3)OCO4)noc2-c2ccsc2)cc([N+](=O)[O-])c1 | inconclusive: 37.9 µM [inhibitor, partial curve, poor fit] |  |
| Cc1cc(C)cc(NC(=O)Cn2nnc(C(=O)Nc3cc(C)cc(C)c3)c2N)c1 | inactive |  |
| COc1ccc(-c2noc(N3CCC(C(=O)Nc4ccccc4OC)CC3)n2)cc1 | inconclusive: 30.1 µM [inhibitor, single point] |  |
| CN1c2ccccc2Oc2nnc(N3CCN(Cc4ccccc4)CC3)cc21 | active: 19 µM |  |
| COc1ccc(NCc2cc3ccccc3[nH]c2=O)cc1 | inconclusive: 37.9 µM [inhibitor, single point] |  |
| Cc1ccc(-c2c3c(=O)n(C)c(=O)n(C)c3c3c(C(F)(F)F)nc4ccccc4n23)cc1 | inconclusive: 21.3 µM [inhibitor, partial curve, poor fit] |  |
| COCc1cc(C)nc2sc(C(=O)Nc3ccccc3F)c(N)c12 | active: 19 µM |  |
| Cc1ccc(Nc2ncc3c(n2)CC(C)(C)CC3=O)cc1 | active: 12 µM |  |
| Cc1csc(NC(=O)Cc2coc3cc(C)c(C(C)C)cc23)n1 | inactive |  |
| COCC(=O)N1CCCC(C(=O)c2ccc(-c3ccccc3)cc2)C1 (centres undefined) | inconclusive: 37.9 µM [inhibitor, partial curve, poor fit] |  |
| Oc1ccc(/C=N/Nc2nccnc2Cl)c(O)c1 | active: 23.9 µM |  |
| CC(C)c1ccc(NC(=O)c2ccc(NC(=O)CCS(=O)(=O)c3cccs3)cc2)cc1 | inactive |  |
| CCCOC(=O)c1ccc(NC(=O)C2CCCO2)cc1 (centres undefined) | inconclusive: 30.1 µM [inhibitor, single point] |  |
| Cc1ccc(CCNc2nc3c(S(=O)(=O)c4ccc(C)cc4)nnn3c3ccsc23)cc1 | inactive |  |
| Cc1ccc(S(=O)(=O)N/N=C/c2cc([N+](=O)[O-])ccc2O)cc1[N+](=O)[O-] | active: 13.5 µM |  |
| COc1ccc(C(=O)N/N=C(\c2ccccc2)c2ccccn2)cc1 | inconclusive: 6.01 µM [inhibitor, single point] |  |
| Cc1cc(O)cc2c1C(=O)/C(=C/c1ccco1)O2 | active: 12 µM |  |
| COc1ccc2oc(-c3ccccc3)c(C(N)=O)c2c1 | inconclusive: 23.9 µM [inhibitor, partial curve] |  |
| Cc1noc(C)c1CN1C(=O)c2ccccc2C1=O | inactive |  |
| O=C(N/N=C/c1ccncc1)c1sc2ccccc2c1Cl | inconclusive: 23.9 µM [inhibitor, partial curve] |  |
| Cc1cccc(NC(=O)CSc2nnc(C)c(=O)[nH]2)c1 | inactive |  |
| Clc1ccc(CNc2ccccn2)cc1 | inconclusive: 16.9 µM [inhibitor, partial curve] |  |
